Test results published in PubChem BioAssay AID894 (National Center for Advancing Translational Sciences (NCATS), 2007).
Out of some 150,000 compounds screened, about 6,500 (4.3%) were called active. Inconclusive means that the source gave no clear call. Such entries were picked first, then a sample of the others. Calls follow the shape of the dose curve; as a rule, active = well fitted inhibition curve with a large enough effect (not every such curve was filed as active); inconclusive = small, poorly fitted or top-dose-only effect, or another doubt; inactive = no such curve, though single readings can be large or run the other way. Potencies beside an inconclusive call are fits to weak or partial responses and may not hold up.

Molecular target: 15-hydroxyprostaglandin dehydrogenase [NAD(+)] (Homo sapiens) (UniProt P15428)
Chain of UniProt P15428 (P15428 whole entry, looked up): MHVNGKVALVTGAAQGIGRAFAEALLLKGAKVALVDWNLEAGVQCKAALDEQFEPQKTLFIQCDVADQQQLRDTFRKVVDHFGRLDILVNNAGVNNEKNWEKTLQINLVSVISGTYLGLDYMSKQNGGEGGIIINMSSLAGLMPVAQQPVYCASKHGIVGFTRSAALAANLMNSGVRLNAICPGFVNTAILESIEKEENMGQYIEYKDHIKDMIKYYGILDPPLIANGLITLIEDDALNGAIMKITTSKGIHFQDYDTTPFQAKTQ
Assay: qHTS Assay for Inhibitors of HPGD (15-Hydroxyprostaglandin Dehydrogenase)
Conditions: purified HPGD, NADH fluorescence kinetic, PGE2 substrate; activity change, negative = inhibition: hits give low values
Procedure, shortened: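 NADH formation kinetics: reaction with 30 uM PGE2 and 1 mM NAD+ (final), 20 nM enzyme, Tris-HCl pH 8 with Tween 20, after 15 min compound preincubation at room temperature. Fluorescence change, last versus first of five reads.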
% is scaled to controls: 0 for no effect and ±100 for the full control effect; potency is read from the fitted curve at half-maximal effect; tags tell the direction and shape of the fitted curve.

Potency, inconclusive:
Cc1nc2ccc(NC(=O)c3ccc(S(=O)(=O)N(C)c4ccccc4)cc3)cc2s1 28.2 µM [inhibitor, partial curve, poor fit], COC(=O)c1sccc1NC(=O)c1cc(-c2cccc(C)c2)nc2ccccc12 25.1 µM [inhibitor, partial curve], CCOC(=O)CNC(=O)c1sc2nc(C)cc(C)c2c1N 15.8 µM [inhibitor, partial curve], COc1ccc(NC(=O)COC(=O)c2cc(OC)c(OC)cc2NC(=O)c2ccco2)cc1OC 22.4 µM [inhibitor, partial curve], NC(=O)c1c(NC(=O)c2cc3ccccc3o2)sc2c1CCC2 28.2 µM [inhibitor, partial curve], O=C1CCCC2=C1C(c1ccncc1)c1c(nc(SCc3ccccc3)[nH]c1=O)N2 (stereo not drawn) 20 µM [inhibitor, partial curve], Cc1cc(/C=C2/SC(=S)N(c3ccc([N+](=O)[O-])cc3)C2=O)c(C)n1-c1cccnc1 25.1 µM [inhibitor, partial curve], COc1cccc(-c2cc(=O)c3cc(NC(=O)c4ccc(C)cc4)ccc3[nH]2)c1 31.6 µM [inhibitor, partial curve], O=C(CCc1nc(-c2ccccc2)c(-c2ccccc2)o1)OCc1ccc(Br)cc1 28.2 µM [inhibitor, partial curve], Cc1ccc(/C=C/c2nnc(-c3cccs3)o2)cc1 7.94 µM [inhibitor, partial curve], N#Cc1c(-c2ccco2)cc(-c2ccccn2)nc1N 28.2 µM [inhibitor, partial curve], CC1(c2ccccn2)Nc2ccccc2-c2nc3ccccc3n21 (stereo not drawn) 28.2 µM [inhibitor, partial curve], O=C(c1cccn2c(=O)c3cc(Cl)ccc3nc12)N1CCOCC1 28.2 µM [inhibitor, partial curve], N#CC1=C(N)c2ccccc2CC12CCCCC2 25.1 µM [inhibitor, single point], Nc1c(C(=O)NCC2CCCO2)c2nc3ccccc3nc2n1-c1ccccc1 (stereo not drawn) 28.2 µM [inhibitor, partial curve], N#Cc1c(N)n(CCOC(=O)c2ccc(Cl)cc2)c2nc3ccccc3nc12 5.01 µM [inhibitor, partial curve], Cc1cc(N2CCOCC2)nc2ccc(Cc3ccc4nc(N5CCOCC5)cc(C)c4c3)cc12 3.98 µM [inhibitor, partial curve], FC(F)(F)c1cccc(NC(=S)NNC(=S)NCc2ccccc2)c1 2 µM [inhibitor, full curve, poor fit], Cc1ccc2oc(C(=O)NCc3ccc4c(c3)OCO4)c(C)c2c1 14.1 µM [inhibitor, partial curve], CCc1nc2ccccc2c(C(=O)OCC(=O)NCc2ccco2)c1C 35.5 µM [inhibitor, single point], COc1ccc2[nH]c(=O)c(CN(CC3CCCO3)C(=O)Nc3ccccc3)cc2c1 (stereo not drawn) 20 µM [inhibitor, partial curve], O=C(Cc1cccs1)Nc1nc2c(ccc3ccccc32)s1 22.4 µM [inhibitor, partial curve, poor fit], Cc1cccc(Nc2nnc(SCC(=O)Nc3ccccc3[N+](=O)[O-])s2)c1C 31.6 µM [inhibitor, partial curve], CCC(=O)Nc1c(S(=O)(=O)c2ccccc2)c2nc3ccccc3nc2n1C(C)c1ccccc1 (stereo not drawn) 31.6 µM [inhibitor, partial curve], CCCCOc1ccc(NC(=O)CSc2cccc3cccnc23)cc1 35.5 µM [inhibitor, single point], COCCN(CCOC)c1nc(C)nc2c1nc(-c1ccccc1)n2CC1CCN(C)CC1 28.2 µM [inhibitor, partial curve]

Potency, active:
CCOC(=O)COc1ccc2ccccc2c1/C=C/[N+](=O)[O-] 3.55 µM, O=C(O)c1c(Br)c(Br)c(Br)c(Br)c1C1c2ccc(O)cc2Oc2cc(O)ccc21 2.51 µM, O=C(COC(=O)CCSc1ccccc1)NCc1ccccc1Cl 17.8 µM, Cc1ccc(S(=O)(=O)CC#CCOC(=O)c2ccc([N+](=O)[O-])cc2)cc1 12.6 µM, CC(C)C(OC(=O)c1cc2occc2n1C)C(=O)NCc1ccc2c(c1)OCO2 (stereo not drawn) 12.6 µM, COc1ccc(C(=O)NCc2ccccc2OC)c(OC)c1 28.2 µM

Activity change, negative = inhibition, inactive:
COc1cc(C(=O)ON=C2C=C(C)C(=O)C(C)=C2)cc(OC)c1OC -15%, Cc1ccc(S(=O)(=O)c2ccc(Cl)cc2)cc1S(=O)(=O)N1CCN(C)CC1 -9.72%, O=c1c(-c2ccccc2)c(O)c2c(n1-c1ccccc1)CCCC2 -11.3%, O=C(CN1C(=O)CCS(=O)(=O)c2ccccc21)Nc1ccc2c(c1)OCCO2 -9.49%, CN(C)CCCN(C(=O)CCc1ccccc1)c1nc2ccc(Cl)cc2s1 -11.4%, Cc1cccc(C)c1NS(=O)(=O)c1ccc2c(c1)C(=O)c1ccccc1C2=O -6.36%, Cc1ccc2nc(-c3cccc(NS(C)(=O)=O)c3)cc(-c3ccccc3)c2c1 -25.2%, Cn1c(CCNC(=O)c2ccco2)nc2cc(NC(=O)NC3CCCCC3)ccc21 -23%, Cc1ccc(NC(=O)CCN2C(=O)CSC2=O)cc1 -9.42%, Cc1ccc(-c2nc3sc4c(N)ncnc4c3c3c2CCCC3)cc1 -9.75%, CCCCN1C(=S)SC(C)(C)C1/[N+]([O-])=C/c1cccnc1 (stereo not drawn) 0.436%
